Reference: the supplement of paper PMC3334620
Whole data set: some 33,000 sequences, median “E-score (-0.5 to 0.5)” near -0.021, cut for the highest 2% near 0.32. Some of the results follow.

Target: T1, Zap1 (UniProt P47043)
T1 sequence: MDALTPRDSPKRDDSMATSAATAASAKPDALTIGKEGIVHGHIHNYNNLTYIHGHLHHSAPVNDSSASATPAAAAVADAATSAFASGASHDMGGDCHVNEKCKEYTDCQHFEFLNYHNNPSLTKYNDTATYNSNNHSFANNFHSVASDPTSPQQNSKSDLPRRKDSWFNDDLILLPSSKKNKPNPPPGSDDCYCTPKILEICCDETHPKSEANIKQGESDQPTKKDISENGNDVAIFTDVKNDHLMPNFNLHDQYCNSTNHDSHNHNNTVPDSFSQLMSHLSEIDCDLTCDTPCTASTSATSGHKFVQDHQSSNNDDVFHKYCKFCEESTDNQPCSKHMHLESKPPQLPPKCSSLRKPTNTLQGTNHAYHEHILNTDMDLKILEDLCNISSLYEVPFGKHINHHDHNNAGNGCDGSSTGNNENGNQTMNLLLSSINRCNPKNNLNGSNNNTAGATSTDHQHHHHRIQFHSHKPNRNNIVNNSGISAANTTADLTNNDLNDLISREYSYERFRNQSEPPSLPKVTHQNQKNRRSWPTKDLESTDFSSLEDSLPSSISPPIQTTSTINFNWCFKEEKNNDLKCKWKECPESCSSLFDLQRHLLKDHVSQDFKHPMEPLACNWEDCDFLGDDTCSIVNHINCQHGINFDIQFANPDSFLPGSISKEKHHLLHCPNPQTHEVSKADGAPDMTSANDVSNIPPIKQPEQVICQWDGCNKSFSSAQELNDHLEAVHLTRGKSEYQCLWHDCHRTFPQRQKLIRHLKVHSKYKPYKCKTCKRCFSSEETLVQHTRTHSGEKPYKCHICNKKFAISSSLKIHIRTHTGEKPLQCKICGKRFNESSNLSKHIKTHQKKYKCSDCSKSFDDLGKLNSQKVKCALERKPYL
Assay: PBM E-score (8-mer binding enrichment) (E-score (-0.5 to 0.5)); higher = stronger / more preferred TF binding; most listed sequences are background and not binding sites
Conditions: protein concentration: 200 nM; construct: GST-full length
How it was run: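 Full-length yeast transcription factors or their DNA-binding domains, GST-tagged and expressed with PURExpress, were applied at about 100-200 nM to universal all-10-mer Agilent arrays. These arrays had been made double-stranded by primer extension on fresh or once-stripped slides. Detection used fluorescent anti-GST, normalisation used masliner, and E-scores for ungapped eight-base words pooled with reverse complements came from the Universal PBM Analysis Suite.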

Sequence | PBM E-score
AGCTTCGC | -0.222
CGTCCTAG | -0.164
AAAGACTA | -0.0199
ATCTAATA | 0.211
CAGCTATC | -0.201
CCCCATCA | 0.0773
ACTAGACA | 0.0153
CGTAGATC | -0.14
AGAGGATA | 0.0711
AGTGGTAC | 0.204
ATGATCCG | -0.0324
GTTCCGGA | -0.0987
ACGTTCCG | -0.304
CCTGCCAG | -0.0849
AAAACGAC | 0.181
ATGCAGCG | -0.196
AGAATAGG | 0.0937
GGCAGGCC | -0.345
CCCCCCGC | -0.286
GCTGTGCA | -0.0863
CAAAGGTG | 0.0139
GGCCAGCA | -0.185
AATCCTAT | 0.054
CCAGGTTC | -0.159
GGAGACAA | -0.08

Sequence | PBM E-score
CCATCAGC | 0.0766
CCCAATCC | 0.0373
CTTTCCTC | -0.0382
GCGACCCA | 0.0978
TCGAGTAA | 0.194
AGCTGTTG | -0.0641
ATGAGAAG | -0.0712
AGGCGCCT | -0.193
ACGCGAGC | -0.0881
GAGGTCCA | 0.0152
CAAACTGG | -0.111
ACGGGGAT | -0.0753
CACCCTCG | 0.234
AACGAATA | -0.00355
GCAGTAGC | -0.194
TTGGAAAA | 0.109
AGGCAATA | -0.152
CTTGGGTC | 0.00951
CGAGGCCG | -0.0899
AAGTCTGA | -0.154
CTAGGGAC | -0.0705
CAGCCATA | -0.198
GTGTCTCA | -0.115
CACAGAAC | -0.203
AATAATAT | 0.144

Sequence | PBM E-score
CTTGTCAA | -0.0325
AGCCATTC | -0.0998
AGGAGAAG | -0.167
AGTACGAC | 0.0168
GACATCTA | 0.0356
CCACATGG | -0.0835
CACGTGTA | -0.0824
CGGCCCGA | -0.0313
CAACCCCC | -0.212
CAACACGA | 0.0168
CGAATAAG | -0.0488
CAAGTCCA | -0.0774
AACGCAAG | -0.0202
GTATCGTA | 0.0591
TCGACCGA | -0.19
ACCACGCC | -0.0298
GCCTACGA | -0.0547
AAGCAAGA | -0.153
ACCATTGA | 0.117
CTTATAGA | 0.0117
TAAGTCAA | -0.0991
GACAATCC | 0.0476
ATGGTTTC | 0.138
CAATTGGA | -0.1
ACCGGGCG | -0.121

Sequence | PBM E-score
AGTACTGA | -0.0168
ATGCTAGC | -0.159
AATCAGTC | -0.107
ACTATCAG | -0.067
CAGACCGC | 0.14
CACATTCA | -0.104
AGATCTCG | -0.0873
CCAAAAAC | 0.256
CGGTGGGA | -0.0865
CCCACAAC | 0.233
ATAGGCCA | 0.0751
CACTCGCA | -0.0876
AAAACTCT | -0.069
ATTCACTG | -0.136
AGCGTGCA | -0.151
CTAATGGC | 0.134
CACCGGGG | -0.137
GATACTGC | -0.126
AGACGTCC | -0.0654
ATCTGAAA | 0.00151
CCCTGTAG | 0.14
CGCTCGAA | -0.152
ACAAACCG | 0.027
GACAAGTA | -0.0947
AAACCACA | 0.184

Sequence | PBM E-score
AGAGCTTC | -0.0654
AGGTCCTG | 0.0385
ACGAAACG | -0.147
GGTGGATA | -0.0334
CACTCAAC | 0.136
TAGATAAA | 0.16
GACTAACC | 0.14
GCTGCTTA | 0.0693
ACATAGTG | -0.0367
CCAATTGG | 0.21
CCGTTTTA | 0.0249
CGTTTATA | 0.0137
AGAAGATA | 0.0269
CCATTAAA | 0.157
CTCCGCAA | -0.098
CACTGGCC | -0.122
CCTCGAGG | 0.331
CTTCCGGC | 0.0477
CGATACTA | 0.0625
AGCTTCGG | -0.19
ATGATTGC | 0.0384
TGATGGCA | -0.242
CACTATCG | -0.187
CATCTGAG | 0.0478
AGGGGTGC | -0.162

Sequence | PBM E-score
ACGCAGCA | -0.145
GATAAGCA | -0.0852
AGGCACAC | -0.173
ACGTGACC | 0.249
GTGAGAGA | -0.135
GAATCGGC | -0.15
CACCCATA | 0.034
GATGGACA | 0.0797
CAAAGACC | 0.268
CCAGGTTA | 0.382
GTTCAAAA | 0.0198
CTATGATC | -0.146
ACCCTGAG | 0.378
GACGCACA | -0.0128
ATAACTAG | 0.109
ACCGGCTC | -0.103
ACACCTCA | 0.00676
ACTCTCGG | 0.0208
TCCGAAAA | 0.126
ATGATTCA | -0.0405
CCGTCATC | -0.199
GAGCTGCA | -0.252
AAGTTCGT | 0.0319
AGATTAGA | -0.101
ATGACCTA | 0.304

Sequence | PBM E-score
CGCGCCCC | -0.0464
ACTAATCT | -0.175
AGGCTGGA | -0.23
CATCCGCC | 0.00204
ACACGATC | -0.0924
CTTTATAC | 0.0485
ACAAGTAA | 0.0362
CGCCAGAC | -0.0527
CAGACTCC | -0.35
GAATACCC | 0.229
GCCGGAGA | -0.196
CTGCGCTA | -0.279
CCATGACG | 0.0693
GCCTCCAA | -0.00173
AGACGAGC | -0.31
CCGCATCG | -0.129
TACGAGAA | 0.0927
TCGCGAAA | 0.0948
GCTTTTAA | -0.0452
TGAAATAA | 0.0504
CTAAAATC | 0.0541
AACAGGAG | -0.00778
